Experimental data taken from patent US12616673B2 (priority 2020, dated 2026).

System: MV-4-11 cell line (FLT3-ITD+ AML)
Settings: 10 nM R alone
Protocol: FIG. 1. Cells of the MV-4-11 cell line were treated with 10 nM ATRA (R), 1.5 nM Btz (B) and 500 nM ATO, alone or in combination as indicated. A After 72 hours from the treatment, cell death was assessed by the propidium iodide (PI) exclusion method, as measured by flow cytometer (n=6±SEM, one way ANOVA statistical analysis). Cells of the MOLM-13 cell line were treated and analysed in the same manner, except for the concentration of Btz, which in this case is 2.25 nM (n=6±SEM, one way ANOVA statistical analysis). […]
Cell counts were performed by optical microscope counting in a Burker chamber, excluding dead cells by Trypan Blue staining. Cell death was assessed by flow cytometry (Cytoflex, Beckman Coulter) after staining the cells with 2.5 μg/ml propidium iodide (Sigma-Aldrich, St. Louis, MO, USA), a dye that can only penetrate dead cells. Reactive oxygen species (ROS) were measured by flow cytometry after incubation with the ROS-specific dye CM-H2DCFDA (Thermo Fisher Scientific, Waltham, MA, USA) at a concentration of 2 μM, following the manufacturer's instructions. Nrf-2 fluorescence in the nuclei was assessed by flow cytometry after isolating the nuclei as described for the preparation of the cytosolic lysate for the Western blot. […]

CC1=C(/C=C/C(C)=C/C=C/C(C)=C/C(=O)O)C(C)(C)CCC1 [R, all-trans retinoic acid]
cell death, single agent: sensitive
